Results are given in words; binding and its absence hold for the method and conditions named. In cells and extracts the contact can be indirect. Some entries that bind do so weakly or less than the wild type.
Legend:
PTPN6 A550V (human) = PTPN6 A550V (human) (UniProt P29350); assay: co-IP; PTPN6 immunoprecipitated with PTPN6 antibody (5 ug, protein G-Agarose, 4 C, washed four times with RIPA buffer) from lysates of HEK293T cells overexpressing WT or mutant PTPN6; blot for STAT3
PTPN6 N225K (human) = PTPN6 N225K (human) (UniProt P29350); assay: as above
[1] = target: JAK1 (human (endogenous in HEK293T)) (UniProt P23458); assay: co-IP; JAK1, JAK2 or JAK3 immunoprecipitated with specific antibodies (5 ug, protein G-Agarose, 4 C, washed four times with RIPA buffer) from lysates of HEK293T cells overexpressing WT or mutant PTPN6; blot for PTPN6
[2] = target: JAK2 (human (endogenous in HEK293T)) (UniProt O60674); assay: as above
[3] = target: JAK3 (human (endogenous in HEK293T)) (UniProt P52333); assay: as above

Chains of the proteins cited; added tags and fusions are not shown. Lines headed by an entry give the natural chain unless they say otherwise; changes in a name come on top.
UniProt P29350: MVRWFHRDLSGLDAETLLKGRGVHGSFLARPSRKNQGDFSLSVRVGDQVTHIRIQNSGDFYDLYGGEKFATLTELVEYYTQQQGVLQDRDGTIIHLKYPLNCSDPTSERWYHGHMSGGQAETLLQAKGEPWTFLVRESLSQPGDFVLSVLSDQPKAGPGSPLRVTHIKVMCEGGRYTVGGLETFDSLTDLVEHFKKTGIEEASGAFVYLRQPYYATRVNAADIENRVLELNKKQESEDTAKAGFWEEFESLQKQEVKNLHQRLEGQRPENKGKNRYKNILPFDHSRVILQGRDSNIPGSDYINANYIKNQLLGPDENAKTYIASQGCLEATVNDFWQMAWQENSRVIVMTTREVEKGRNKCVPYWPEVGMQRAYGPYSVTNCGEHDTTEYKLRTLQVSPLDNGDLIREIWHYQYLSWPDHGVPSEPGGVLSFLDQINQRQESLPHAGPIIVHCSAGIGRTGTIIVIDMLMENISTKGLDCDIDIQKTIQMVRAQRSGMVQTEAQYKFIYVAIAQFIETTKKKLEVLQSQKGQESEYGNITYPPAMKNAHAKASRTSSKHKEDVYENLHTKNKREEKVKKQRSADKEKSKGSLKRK
UniProt P23458: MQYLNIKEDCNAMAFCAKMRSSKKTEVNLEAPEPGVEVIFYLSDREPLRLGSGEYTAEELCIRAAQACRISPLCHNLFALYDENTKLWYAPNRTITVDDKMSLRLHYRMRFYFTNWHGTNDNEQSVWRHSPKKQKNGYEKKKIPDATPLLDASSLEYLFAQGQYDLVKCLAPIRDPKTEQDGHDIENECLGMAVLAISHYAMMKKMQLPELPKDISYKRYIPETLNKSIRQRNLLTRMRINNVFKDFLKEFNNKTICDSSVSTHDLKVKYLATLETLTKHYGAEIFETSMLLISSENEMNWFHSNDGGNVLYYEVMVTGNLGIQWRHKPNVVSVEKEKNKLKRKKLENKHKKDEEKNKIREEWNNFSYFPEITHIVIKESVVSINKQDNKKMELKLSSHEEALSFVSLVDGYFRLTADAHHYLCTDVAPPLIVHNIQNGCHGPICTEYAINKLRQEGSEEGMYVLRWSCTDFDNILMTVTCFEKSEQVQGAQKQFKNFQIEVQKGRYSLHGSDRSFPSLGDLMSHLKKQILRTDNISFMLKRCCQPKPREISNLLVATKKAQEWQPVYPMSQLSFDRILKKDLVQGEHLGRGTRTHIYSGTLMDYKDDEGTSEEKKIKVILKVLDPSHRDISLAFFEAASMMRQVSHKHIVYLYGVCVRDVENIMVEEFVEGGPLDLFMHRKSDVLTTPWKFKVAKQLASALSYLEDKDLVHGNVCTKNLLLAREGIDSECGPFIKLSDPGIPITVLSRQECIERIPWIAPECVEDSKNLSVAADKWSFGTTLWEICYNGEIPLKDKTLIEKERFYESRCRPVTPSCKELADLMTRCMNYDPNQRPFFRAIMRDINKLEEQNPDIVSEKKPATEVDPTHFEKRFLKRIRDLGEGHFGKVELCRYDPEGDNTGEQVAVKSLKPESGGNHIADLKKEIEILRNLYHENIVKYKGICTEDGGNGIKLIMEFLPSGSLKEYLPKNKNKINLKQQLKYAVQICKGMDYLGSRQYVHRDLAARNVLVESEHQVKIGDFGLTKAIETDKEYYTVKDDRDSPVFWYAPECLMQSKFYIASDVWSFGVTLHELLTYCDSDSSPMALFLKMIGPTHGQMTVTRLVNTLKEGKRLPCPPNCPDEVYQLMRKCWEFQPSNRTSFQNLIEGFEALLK
UniProt O60674: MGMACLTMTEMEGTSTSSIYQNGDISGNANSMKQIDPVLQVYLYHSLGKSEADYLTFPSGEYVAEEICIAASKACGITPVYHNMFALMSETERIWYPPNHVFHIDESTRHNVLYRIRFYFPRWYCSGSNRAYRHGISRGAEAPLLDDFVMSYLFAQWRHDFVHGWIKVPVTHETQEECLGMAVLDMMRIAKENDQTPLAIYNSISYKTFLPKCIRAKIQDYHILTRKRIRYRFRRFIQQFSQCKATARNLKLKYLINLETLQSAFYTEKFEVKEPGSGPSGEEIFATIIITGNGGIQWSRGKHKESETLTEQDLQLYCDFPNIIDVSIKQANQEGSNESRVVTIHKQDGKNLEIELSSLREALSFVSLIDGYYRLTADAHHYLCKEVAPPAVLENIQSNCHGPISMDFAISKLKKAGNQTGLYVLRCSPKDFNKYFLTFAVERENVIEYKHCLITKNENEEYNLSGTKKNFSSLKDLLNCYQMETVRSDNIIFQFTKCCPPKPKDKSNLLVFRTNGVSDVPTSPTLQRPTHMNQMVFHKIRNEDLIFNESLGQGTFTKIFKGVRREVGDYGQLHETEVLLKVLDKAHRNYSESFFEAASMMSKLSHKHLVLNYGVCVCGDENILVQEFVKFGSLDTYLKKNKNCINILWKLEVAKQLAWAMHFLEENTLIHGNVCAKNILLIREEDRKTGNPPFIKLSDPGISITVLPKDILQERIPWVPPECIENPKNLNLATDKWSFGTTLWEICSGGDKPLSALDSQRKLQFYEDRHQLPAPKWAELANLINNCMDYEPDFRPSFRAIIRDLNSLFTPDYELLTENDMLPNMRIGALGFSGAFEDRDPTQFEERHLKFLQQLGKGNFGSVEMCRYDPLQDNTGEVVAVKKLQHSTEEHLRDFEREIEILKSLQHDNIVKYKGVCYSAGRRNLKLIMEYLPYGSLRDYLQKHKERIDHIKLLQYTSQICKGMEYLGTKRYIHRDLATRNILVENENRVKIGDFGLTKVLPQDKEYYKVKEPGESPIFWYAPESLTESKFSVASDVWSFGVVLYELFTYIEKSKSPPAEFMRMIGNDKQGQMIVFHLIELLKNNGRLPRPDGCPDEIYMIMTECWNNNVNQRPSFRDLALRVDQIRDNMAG
UniProt P52333: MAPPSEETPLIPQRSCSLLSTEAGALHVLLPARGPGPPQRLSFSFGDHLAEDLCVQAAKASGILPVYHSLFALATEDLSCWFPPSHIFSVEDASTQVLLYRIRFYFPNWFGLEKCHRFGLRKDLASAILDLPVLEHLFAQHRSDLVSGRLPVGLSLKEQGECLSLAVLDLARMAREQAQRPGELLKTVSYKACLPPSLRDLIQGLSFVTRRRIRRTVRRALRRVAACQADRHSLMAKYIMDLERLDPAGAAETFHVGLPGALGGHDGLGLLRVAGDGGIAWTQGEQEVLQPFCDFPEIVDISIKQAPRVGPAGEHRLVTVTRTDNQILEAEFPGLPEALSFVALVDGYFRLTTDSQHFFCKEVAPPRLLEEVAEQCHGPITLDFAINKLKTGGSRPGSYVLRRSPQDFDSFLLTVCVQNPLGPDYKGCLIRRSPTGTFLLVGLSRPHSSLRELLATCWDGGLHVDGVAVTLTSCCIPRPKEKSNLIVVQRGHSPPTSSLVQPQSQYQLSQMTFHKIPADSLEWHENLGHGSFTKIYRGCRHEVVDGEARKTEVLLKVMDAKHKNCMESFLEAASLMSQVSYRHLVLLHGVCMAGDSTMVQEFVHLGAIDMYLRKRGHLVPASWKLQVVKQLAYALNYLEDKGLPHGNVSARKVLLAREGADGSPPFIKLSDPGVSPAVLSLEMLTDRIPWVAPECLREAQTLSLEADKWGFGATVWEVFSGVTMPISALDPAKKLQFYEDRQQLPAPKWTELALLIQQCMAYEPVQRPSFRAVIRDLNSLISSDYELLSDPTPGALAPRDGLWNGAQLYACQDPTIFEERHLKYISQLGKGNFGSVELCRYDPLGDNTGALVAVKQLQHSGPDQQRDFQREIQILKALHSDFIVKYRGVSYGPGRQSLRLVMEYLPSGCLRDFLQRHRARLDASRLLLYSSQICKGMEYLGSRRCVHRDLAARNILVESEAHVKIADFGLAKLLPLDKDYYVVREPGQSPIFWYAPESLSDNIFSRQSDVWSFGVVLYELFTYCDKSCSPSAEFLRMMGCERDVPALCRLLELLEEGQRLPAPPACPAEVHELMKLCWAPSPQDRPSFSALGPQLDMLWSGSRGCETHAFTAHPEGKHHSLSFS
UniProt P40763: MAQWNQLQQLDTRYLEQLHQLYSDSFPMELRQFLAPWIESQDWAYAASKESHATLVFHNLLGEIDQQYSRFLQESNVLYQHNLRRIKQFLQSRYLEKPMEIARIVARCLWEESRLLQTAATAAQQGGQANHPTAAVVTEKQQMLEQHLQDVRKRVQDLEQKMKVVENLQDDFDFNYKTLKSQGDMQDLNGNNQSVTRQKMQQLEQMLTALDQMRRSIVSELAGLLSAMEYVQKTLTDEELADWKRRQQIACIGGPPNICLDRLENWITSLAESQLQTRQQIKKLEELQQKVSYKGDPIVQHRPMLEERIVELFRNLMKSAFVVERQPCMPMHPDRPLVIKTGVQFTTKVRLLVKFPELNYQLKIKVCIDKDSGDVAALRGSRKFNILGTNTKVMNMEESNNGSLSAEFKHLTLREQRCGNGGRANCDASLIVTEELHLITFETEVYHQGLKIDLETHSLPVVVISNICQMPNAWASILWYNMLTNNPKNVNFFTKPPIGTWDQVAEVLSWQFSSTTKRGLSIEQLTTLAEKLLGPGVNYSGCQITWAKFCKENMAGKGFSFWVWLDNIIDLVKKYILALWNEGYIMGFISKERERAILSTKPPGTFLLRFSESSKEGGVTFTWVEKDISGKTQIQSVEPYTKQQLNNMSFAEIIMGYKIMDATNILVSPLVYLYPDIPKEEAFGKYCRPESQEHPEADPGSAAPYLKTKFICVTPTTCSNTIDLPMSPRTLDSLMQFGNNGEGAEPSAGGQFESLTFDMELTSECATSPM

Row | binding (PTPN6 A550V (human)) | binding (PTPN6 N225K (human)) | binding [1] | binding [2] | binding [3] | Substance
1 | no binding | no binding |  |  |  | STAT3 (from UniProt P40763 1-770)
2 |  |  | no binding | no binding | binds | PTPN6 wild type (from UniProt P29350-1 1-595) (enzyme)
3 |  |  | binds weakly | binds weakly | binds | PTPN6 N225K (from UniProt P29350-1 1-595) (enzyme)
4 |  |  | binds weakly | binds weakly | binds | PTPN6 A550V (from UniProt P29350-1 1-595) (enzyme)

Source: PMC4792586
